Positions count from the first letter of the chain named. Numbers in names are those of the source. ± gives the standard deviation of the averaged measurements. Laboratory Escherichia coli strains with one amino-acid change in an essential protein, pooled on minimal glucose agar with carbenicillin or gentamicin at twice the control MIC (plus kanamycin and chloramphenicol for the plasmids), 48 h. Fold change of barcode share against drug-free plates; higher = less susceptible. Active = above 20 in both replicates (the paper's putatively resistant). '<' = one read or none on drug, '>' = one read or none on a drug-free plate. Shares are relative, so most strains fall below 1 when a few take over. Listed are strains with at least 15 reads on both drug-free plates, and hits; most hits rest on fewer reference reads. Replicate rank correlation about 0.5. Edits are read from barcodes.
B1: accD V121Q (protein)
chain: MSWIERIKSNITPTRKASIPEGVWTKCDSCGQVLYRAELERNLEVCPKCDHHMRMTARNRLHSLLDEGSLVELGSELEPKDVLKFRDSKKYKDRLASAQKETGEKDALVVMKGTLYGMPVQAAAFEFAFMGGSMGSVVGARFVRAVEQALEDNCPLICFSASGGARMQEALMSLMQMAKTSAALAKMQERGLPYISVLTDPTMGGVSASFAMLGDLNIAEPKALIGFAGPRVIEQTVREKLPPGFQRSEFLIEKGAIDMIVRRPEMRLKLASILAKLMNLPAPNPEAPREGVVVPPVPDQEPEA
B2: thiL I9A (protein)
chain: MACGEFSLAARYFDRVRSSRLDVELGIGDDCALLNIPEKQTLAISTDTLVAGNHFLPDIDPADLAYKALAVNLSDLAAMGADPAWLTLALTLPDVDEAWLESFSDSLFDLLNYYDMQLIGGDTTRGPLSMTLGIHGFVPMGRALTRSGAKPGDWIYVTGTPGDSAAGLAILQNRLQVADAKDADYLIKRHLRPSPRILQGQALRDLANSAIDLSDGLISDLGHIVKASDCGARIDLALLPFSDALSRHVEPEQALRWALSGGEDYELCFTVPELNRGALDVALGHLGVPFTCIGQMTADIEGLCFIRDGEPVTLDWKGYDHFATP
B3: thiL V95Q (protein)
chain: B2 chain with A9I, V95Q
B4: thiL I9W (protein)
chain: B2 chain with A9W
B5: thiL I9Q (protein)
chain: B2 chain with A9Q
B6: thiL F13Q (protein)
chain: B2 chain with A9I, F13Q
B7: thiL V95A (protein)
chain: B2 chain with A9I, V95A
B8: thiL V95W (protein)
chain: B2 chain with A9I, V95W
B9: thiL F13W (protein)
chain: B2 chain with A9I, F13W
B10: suhB V116D (protein)
chain: MHPMLNIAVRAARKAGNLIAKNYETPDAVEASQKGSNDFVTNVDKAAEAVIIDTIRKSYPQHTIITEESGELEGTDQDVQWVIDPLDGTTNFIKRLPHFAVSIAVRIKGRTEVAVDYDPMRNELFTATRGQGAQLNGYRLRGSTARDLDGTILATGFPFKAKQYATTYINIVGKLFNECADFRRTGSAALDLAYVAAGRVDGFFEIGLRPWDFAAGELLVREAGGIVSDFTGGHNYMLTGNIVAGNPRVVKAMLANMRDELSDALKR
B11: suhB F230D (protein)
chain: B10 chain with D116V, F230D
B12: suhB F230A (protein)
chain: B10 chain with D116V, F230A
B13: suhB V40A (protein)
chain: B10 chain with V40A, D116V
B14: suhB V40Q (protein)
chain: B10 chain with V40Q, D116V
B15: suhB V40D (protein)
chain: B10 chain with V40D, D116V

These proteins were tested against Escherichia coli (laboratory strain) (assay: barcode share on antibiotic plates over drug-free plates; higher = less susceptible). Details: antibiotic: carbenicillin; 2× MIC (3.1 µg/mL).
Experimental: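 A pool of E. coli strains, each edited to carry one amino-acid change in an essential protein, was grown for 48 h on minimal glucose agar with or without antibiotic; strain barcodes were sequenced; mean of two replicates.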

Protein	fold change of barcode share
B1	0.562 ± 0.018
B2	0.277 ± 0.061
B3	0.731 ± 0.31
B4	0.302 ± 0.11
B5	0.437 ± 0.1
B6	0.394 ± 0.015
B7	0.434 ± 0.0056
B8	0.679 ± 0.15
B9	0.477 ± 0.041
B10	0.341 ± 0.11
B11	0.297 ± 0.02
B12	0.179 ± 0.076
B13	0.182 ± 0.17
B14	0.168 ± 0.0022
B15	0.272 ± 0.18

Same assay, conditions: antibiotic: gentamicin; 2× MIC (MIC 0.45 µg/mL)

Protein	fold change of barcode share
B1	0.00435 ± 0.003
B2	< 0.00835
B3	0.0875 ± 0.11
B4	0.0086 ± 0.0042
B5	< 0.0058
B6	0.00836 ± 0.0066
B7	0.01849 ± 6.6e-05
B8	0.00773 ± 0.0024
B9	0.00583 ± 0.0028
B10	0.0153 ± 0.018
B11	< 0.0055
B12	< 0.0108
B13	< 0.0178
B15	0.029 ± 0.019

From the supplement of paper PMC11876631
